Source: PubChem BioAssay AID1508624 (National Center for Advancing Translational Sciences (NCATS), 2021)
The campaign covered roughly 48,000 compounds. About 120 (0.25%) were called active. Inconclusive results (about 4%) are left out. Calls come from the whole dose curve; as a rule, active = well fitted activation curve with a large enough effect; inconclusive = small, poorly fitted or top-dose-only effect, or another doubt; inactive = no such curve, though single readings can be large or run the other way. The list shows a part of the results.

test: Primary qHTS for Identification of Small Molecule Activators of Huntingtin-Antisense Promoter Activity; conditions: HEK293 HTT-AS promoter firefly luciferase reporter (activity 0% = vehicle and -100% = no light), 24 h; series mostly up to 57.5 µM; activity change, positive = activation: at the top concentration; note: nearly all actives have a fitted effect of over 55% in size
Method in brief: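 Firefly luciferase signal from promoter-reporter HEK293 cells was scaled between vehicle (0%) and zero RLU (-100%). Compounds were tested at final concentrations of up to 57.5 uM over 24 h at 37 degrees C. PTC124 at 50 uM final served as control inhibitor.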

Activity change, positive = activation, inactive:
Cc1ccc(N2CCN(C(=O)c3c(C)oc4ncnc(N5CCCCC5)c34)CC2)c(C)c1 -38.8%, O=C(NC1CC(=O)N(c2ccc(Cl)cc2)C1)C1CCCC1 (stereo not drawn) -11.4%, COc1ccc(NC(=O)CSc2nc3c(oc4ccccc43)c(=O)n2-c2ccccc2)cc1OC -18.1%, COc1ccc(-c2nc3scc(CCNS(=O)(=O)c4c(C)cc(C)cc4C)n3n2)cc1OC -23.5%, CCc1nn2c(=O)cc(COC(=O)c3ccc4c(c3)OCO4)nc2s1 12.7%, O=C(NCCn1cc(SCc2ccccc2)c2ccccc21)c1cccs1 -36.6%, COc1ccccc1CNC(=O)CCCCn1c(=O)c2ccccc2n(Cc2ccccc2C)c1=O -30.6%, Cc1cc(C)cc(C(=O)Nc2cccc(-c3nc4ncccc4o3)c2C)c1 -0.66%, CC(C)(C)C1CCc2c(sc(NC(=O)c3ccccc3F)c2C(=O)NCc2ccco2)C1 (stereo not drawn) -19%, NC(=O)c1ncn([C@@H]2O[C@H](CO)[C@@H](O)[C@H]2O)c1N -1.4%, CC(=O)c1cccc(NC(=O)c2ccc(Cl)c(S(=O)(=O)N3CCOCC3)c2)c1 -22.9%, CCOC(=O)c1cc2c(=O)n3ccccc3nc2n(CCOC)c1=NC(=O)c1cc2ccccc2o1 12.3%, c1ccc(N2CCN(Cc3nnc(-c4ccc5c(c4)OCO5)o3)CC2)cc1 20.2%, COc1ccc(C2=NS(=O)(=O)N(C)C(C(=O)Nc3ccc(OC(F)(F)F)cc3)=C2)cc1 -27.4%, CN(Cc1ccccc1)S(=O)(=O)c1nnc(NC(=O)c2ccccc2Cl)s1 -21.2%, COc1ccc(-c2nc(Cn3c(=O)cc(-c4ccccc4)c4c(C)nn(C)c43)c(C)o2)cc1OC -6.51%, CCOc1ccc(Nc2nc3c(S(=O)(=O)c4ccc(CC)cc4)nnn3c3ccc(Cl)cc23)cc1 0.199%, CC1CCN(S(=O)(=O)c2ccc3c(ccc(=O)n3CC(=O)NCc3ccc(Cl)cc3)c2)CC1 -34%, CC(=O)N1CCc2cc(Br)cc(S(=O)(=O)NCCc3ccc(Cl)cc3)c21 -6.21%, CC(=O)c1cccc(NC(=O)CCc2nc3cccnc3n2Cc2cccs2)c1 -17.1%, O=C(c1cccn1-c1nnc(N2CCCCC2)s1)N1CCN(c2ccc(Cl)cc2)CC1 -12.9%, COc1ccc(CCNc2nc3ccc(C)cc3n3cnnc23)cc1OC -4.7%, CCOC(=O)CSc1nc(-c2ccc(F)cc2)cc(C(F)(F)F)c1C#N -27.2%, COc1ccc(S(=O)(=O)N(CC(=O)Nc2cc(C)cc(C)c2)c2ccc(Cl)cc2)cc1 -34.9%, CCn1c(C(=O)N2CCC(C(=O)N3CCN(c4ccc(OC)cc4)CC3)CC2)cc2sccc21 -23.9%, COc1ccc(Cl)cc1N=C1NC(=O)CC(C(=O)Nc2ccccc2C(F)(F)F)S1 (stereo not drawn) -23.2%, CCc1ccccc1N1CC(c2nc3ccccc3n2CCOc2ccc(Cl)c(C)c2)CC1=O (stereo not drawn) -69.6%, CCNc1nc(NC(C)(C)C)nc(Oc2ccc(=O)n(-c3ccccc3)n2)n1 -28.5%, CC(C)Oc1ccc(CNC(=O)c2ccc3nc(C(C)C)oc3c2)cc1 20.8%, CN(C)c1ccc(C(=O)Nc2c(C(=O)NC(C)(C)C)oc3ccccc23)cc1 1.02%, Cc1cc(C)cc(NC(=O)C(CC(C)C)NC(=O)C2CCCCC2)c1 (stereo not drawn) -4.42%, Cc1ccc(NS(=O)(=O)c2c(C)nc3sccn3c2=O)c(Cl)c1 -20.5%, Cc1ccc(Cl)c(OCC(O)CNC(C)(C)C)c1 (stereo not drawn) -7.37%, Cc1ccc(-n2c(=O)c3c(c4cc(C)ccc4n3C)n(CC(=O)NCC3CCCO3)c2=O)cc1 (stereo not drawn) -15.9%, CCC(=O)O[C@H]1[C@H](O[C@@H]2[C@@H](C)[C@H](O[C@H]3C[C@@](C)(OC)[C@@H](O)[C@H](C)O3)[C@@H](C)C(=O)O[C@H](CC)[C@@](C)(O)[C@H](O)[C@@H](C)C(=O)[C@H](C)C[C@@]2(C)O)O[C@H](C)C[C@@H]1N(C)C -6.82%, COc1cc(Cl)c(NC(=O)CC(C)S(=O)(=O)c2cc3c(cc2C)NC(=O)CO3)c(OC)c1 (stereo not drawn) 0.556%, Cc1ccc(NC(=O)CSc2nncn3c2cc2sccc23)cc1F -12.8%, CC(C)c1ccc(NC(=O)c2cc(S(=O)(=O)N3CCc4ccccc4C3)ccc2F)cc1 -15.5%, Cc1cccc(NC(=O)CCn2nc(C)c3c(C)n(-c4ccccc4)nc3c2=O)c1C -1.21%, CCCCOC(=O)c1ccc(NC2=NS(=O)(=O)c3ccccc32)cc1 -17.1%, Cc1ccc(-c2nc3n(n2)C(=O)CC(c2ccc(C)cc2)S3)cc1 (stereo not drawn) 3.11%, COc1cccc(-c2ccc3c(N)c(C(=O)c4ccc(F)cc4)sc3n2)c1 8.09%, CC(NC(=O)CCCN1C(=O)CCn2nc(-c3cn(C)c4ccccc34)cc21)c1ccccc1 (stereo not drawn) -37.2%, NC(=O)c1ccc(-c2nc(-c3ccc4c(c3)OCO4)c(-c3ccccn3)[nH]2)cc1 -10.1%, CCOC(=O)c1c(C)oc2nc(C)nc(NCC3CCN(Cc4ccc(F)cc4)CC3)c12 -7.18%, COc1ccc(CNc2ncnc3c2cnn3-c2ccc(Cl)cc2)cc1 7.64%, O=C(Nc1ccc(Cl)c(-c2nc3ccccc3o2)c1)c1cccc2c(Cl)cccc12 -0.132%, Cc1ccc(CSC2=Nc3ccccc3C3=NC(CCC(=O)NCc4cccs4)C(=O)N23)c(C)c1 (stereo not drawn) -1.13%, COc1ccc(Nc2ccc3cc(S(=O)(=O)N4CCCC4)ccc3n2)cc1OC -24.7%, Fc1ccc(-c2nc3c4c(-c5ccccc5)c(-c5ccccc5)oc4ncn3n2)cc1 -21.4%, CCC(Oc1ccccc1)C(=O)N1CCN(Cc2cc(=O)n3nc(-c4cccc(C)c4)sc3n2)CC1 (stereo not drawn) -40.9%, CCOC(=O)CNC(=O)Nc1cc(C(=O)NCc2ccc(C(C)C)cc2)ccc1N1CCCC1 -1.61%, C[N+]12CCC(CC1)C(OC(=O)C(O)(c1ccccc1)c1ccccc1)C2 (stereo not drawn) 0.638%, Cc1cc(OCC(=O)Nc2sc3c(c2C#N)CCC(C)C3)ccc1Cl (stereo not drawn) -12.9%, Cc1ccc2[nH]c(=O)c3cc(C(=O)NCc4cccc(Cl)c4)sc3c2c1 -5.92%, Cc1cc(C)c(/C=C/c2onc(C)c2S(=O)(=O)N2CCC(C(=O)Nc3cccc(C)c3C)CC2)c(C)c1 -1.88%, COc1ccccc1-c1noc(CSc2nnc(-c3ccccc3)n2-c2ccc(C)c(C)c2)n1 -11%, CC(=O)c1ccc(NC(=O)CSc2nc(-c3ccccc3C)nc3c2c(=O)n(C)c(=O)n3C)cc1 -2.23%
